According to paper PMC7757826:
These are yes or no findings as the source states them, for the method shown. In cells and extracts the contact can be indirect. Some binding calls cover weakened binding; strength is not graded here.

Amino acid sequences for entries named in this document (tags omitted).
UniProt P21926: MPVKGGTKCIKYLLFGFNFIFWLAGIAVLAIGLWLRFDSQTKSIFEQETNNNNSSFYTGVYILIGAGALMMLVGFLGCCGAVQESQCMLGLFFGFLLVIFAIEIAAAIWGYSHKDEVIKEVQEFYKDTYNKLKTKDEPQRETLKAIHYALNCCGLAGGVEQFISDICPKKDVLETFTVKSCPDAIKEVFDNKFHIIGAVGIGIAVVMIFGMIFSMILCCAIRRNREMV
UniProt O14493: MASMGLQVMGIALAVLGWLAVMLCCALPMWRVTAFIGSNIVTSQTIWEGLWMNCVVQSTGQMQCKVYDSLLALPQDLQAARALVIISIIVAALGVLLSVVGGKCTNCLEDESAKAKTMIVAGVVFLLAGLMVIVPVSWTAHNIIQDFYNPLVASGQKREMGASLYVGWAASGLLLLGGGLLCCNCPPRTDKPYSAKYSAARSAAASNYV
UniProt O15551: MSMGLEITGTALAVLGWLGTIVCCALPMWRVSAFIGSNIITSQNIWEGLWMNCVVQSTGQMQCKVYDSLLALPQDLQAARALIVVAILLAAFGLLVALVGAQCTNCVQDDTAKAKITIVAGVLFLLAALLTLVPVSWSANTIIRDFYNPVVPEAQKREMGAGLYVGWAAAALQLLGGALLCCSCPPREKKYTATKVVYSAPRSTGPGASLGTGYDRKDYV

T1: Epithelial cell adhesion molecule (EpCAM) (human (endogenous in A2780, OVCAR-3, SKOV-3 and A2780cis cells)) (UniProt P16422)
T1 sequence: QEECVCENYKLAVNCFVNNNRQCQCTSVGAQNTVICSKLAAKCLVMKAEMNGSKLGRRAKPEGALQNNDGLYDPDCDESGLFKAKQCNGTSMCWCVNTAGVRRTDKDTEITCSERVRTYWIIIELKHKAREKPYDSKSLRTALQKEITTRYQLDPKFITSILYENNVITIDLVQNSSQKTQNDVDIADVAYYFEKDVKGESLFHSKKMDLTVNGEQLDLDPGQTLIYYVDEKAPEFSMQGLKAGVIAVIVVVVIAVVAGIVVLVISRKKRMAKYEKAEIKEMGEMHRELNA

T2: CD82 (Tspan-27) (human (endogenous in A2780, OVCAR-3, SKOV-3 and A2780cis cells)) (UniProt P27701)
T2 sequence: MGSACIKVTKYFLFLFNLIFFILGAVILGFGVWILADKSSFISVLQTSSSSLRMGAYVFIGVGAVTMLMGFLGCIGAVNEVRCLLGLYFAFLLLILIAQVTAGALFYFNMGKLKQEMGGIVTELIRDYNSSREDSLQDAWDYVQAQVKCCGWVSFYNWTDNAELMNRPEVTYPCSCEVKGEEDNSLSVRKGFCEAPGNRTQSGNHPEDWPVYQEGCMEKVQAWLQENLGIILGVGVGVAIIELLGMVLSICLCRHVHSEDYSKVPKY

T3: claudin-7 (human (endogenous in A2780, OVCAR-3, SKOV-3 and A2780cis cells)) (UniProt O95471)
T3 sequence: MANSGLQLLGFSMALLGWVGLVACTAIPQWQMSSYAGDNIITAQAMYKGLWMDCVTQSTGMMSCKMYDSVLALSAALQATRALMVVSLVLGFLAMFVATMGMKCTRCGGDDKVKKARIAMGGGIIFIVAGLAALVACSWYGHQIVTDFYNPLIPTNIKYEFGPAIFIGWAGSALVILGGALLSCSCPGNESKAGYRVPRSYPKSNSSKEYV


Columns and labels:
[1] = molecular target: T1, Epithelial cell adhesion molecule (EpCAM) (human (endogenous in A2780, OVCAR-3, SKOV-3 and A2780cis cells)); assay: co-IP; A2780 cells lysed in 1% Triton X-100 buffer; lysates precipitated with antibodies to the studied molecules, western blot
[2] = molecular target: CD9 (Tetraspanin-29) (human (endogenous in A2780 and OVCAR-3 cells)) (UniProt P21926); assay: as above
[3] = molecular target: T2, CD82 (Tspan-27) (human (endogenous in A2780, OVCAR-3, SKOV-3 and A2780cis cells)); assay: condition: only cells treated with 50 μM 2-BP (palmitoylation inhibitor); co-IP; OVCAR-3 cells treated with the palmitoylation inhibitor 2-BP (50 μM, 20 h, 37 °C), RIPA buffer; anti-CD82 or anti-claudin-7 precipitates
[4] = molecular target: T2, CD82 (Tspan-27) (human (endogenous in A2780, OVCAR-3, SKOV-3 and A2780cis cells)); assay: condition: only lysed in RIPA buffer after DTSSP treatment; cross-linking + co-IP; A2780 cells treated with the membrane-impermeable cross-linker DTSSP (1 mM, 30 min, 37 °C), lysed in RIPA buffer; anti-CD82 or anti-claudin-7 precipitates
[5] = molecular target: T2, CD82 (Tspan-27) (human (endogenous in A2780, OVCAR-3, SKOV-3 and A2780cis cells)); assay: condition: only cells treated with 50 μM 2-BP (palmitoylation inhibitor); co-IP; SKOV-3 cells treated with the palmitoylation inhibitor 2-BP (50 μM, 20 h, 37 °C), RIPA buffer; anti-CD82 or anti-claudin-7 precipitates
[6] = molecular target: T1, Epithelial cell adhesion molecule (EpCAM) (human (endogenous in A2780, OVCAR-3, SKOV-3 and A2780cis cells)); assay: co-IP; tumours of SKOV-3 xenograft nude mice, homogenised in 50 mM Tris-HCl pH 8.0, 150 mM NaCl, 1% Triton X-100; immunoprecipitation and western blot
[7] = molecular target: T1, Epithelial cell adhesion molecule (EpCAM) (human (endogenous in A2780, OVCAR-3, SKOV-3 and A2780cis cells)); assay: co-IP; OVCAR-3 cells lysed in 1% Triton X-100 buffer; lysates precipitated with antibodies to the studied molecules, western blot
[8] = molecular target: T1, Epithelial cell adhesion molecule (EpCAM) (human (endogenous in A2780, OVCAR-3, SKOV-3 and A2780cis cells)); assay: co-IP; SKOV-3 cells lysed in 1% Triton X-100 buffer; lysates precipitated with antibodies to the studied molecules, western blot
[9] = molecular target: claudin-4 (human (endogenous in A2780, OVCAR-3, SKOV-3 and A2780cis cells)) (UniProt O14493); assay: co-IP; A2780 cells lysed in 1% Triton X-100 buffer; lysates precipitated with antibodies to the studied molecules, western blot
[10] = molecular target: T3, claudin-7 (human (endogenous in A2780, OVCAR-3, SKOV-3 and A2780cis cells)); assay: cross-linking + co-IP; A2780 cells treated first with 2-BP and then with DSP or DTSSP; anti-CD82 or anti-claudin-7 precipitates
[11] = molecular target: claudin-3 (human (endogenous in A2780, OVCAR-3 and SKOV-3 cells)) (UniProt O15551); assay: co-IP; OVCAR-3 cells lysed in 1% Triton X-100 buffer; lysates precipitated with antibodies to the studied molecules, western blot
[12] = molecular target: claudin-4 (human (endogenous in A2780, OVCAR-3, SKOV-3 and A2780cis cells)) (UniProt O14493); assay: as above
[13] = molecular target: T3, claudin-7 (human (endogenous in A2780, OVCAR-3, SKOV-3 and A2780cis cells)); assay: as above
[14] = molecular target: claudin-3 (human (endogenous in A2780, OVCAR-3 and SKOV-3 cells)) (UniProt O15551); assay: co-IP; SKOV-3 cells lysed in 1% Triton X-100 buffer; lysates precipitated with antibodies to the studied molecules, western blot
[15] = molecular target: claudin-4 (human (endogenous in A2780, OVCAR-3, SKOV-3 and A2780cis cells)) (UniProt O14493); assay: as above
[16] = molecular target: T3, claudin-7 (human (endogenous in A2780, OVCAR-3, SKOV-3 and A2780cis cells)); assay: as above

binding [1] | binding [2] | binding [3] | binding [4] | binding [5] | binding [6] | binding [7] | binding [8] | binding [9] | binding [10] | binding [11] | binding [12] | binding [13] | binding [14] | binding [15] | binding [16] | Molecule
binds weakly | binds | no binding | no binding | no binding | binds | binds | binds | – | – | – | – | – | – | – | – | claudin-4 (from UniProt O14493 1-209)
– | – | – | – | – | – | – | – | binds weakly | binds | binds | binds | binds | binds | binds | binds | Epithelial cell adhesion molecule (EpCAM) (protein, UniProt P16422 24-314) QEECVCENYKLAVNCFVNNNRQCQCTSVGAQNTVICSKLAAKCLVMKAEMNGSKLGRRAKPEGALQNNDGLYDPDCDESGLFKAKQCNGTSMCWCVNTAGVRRTDKDTEITCSERVRTYWIIIELKHKAREKPYDSKSLRTALQKEITTRYQLDPKFITSILYENNVITIDLVQNSSQKTQNDVDIADVAYYFEKDVKGESLFHSKKMDLTVNGEQLDLDPGQTLIYYVDEKAPEFSMQGLKAGVIAVIVVVVIAVVAGIVVLVISRKKRMAKYEKAEIKEMGEMHRELNA
